Among all 52,000 compounds or so, about 4,300 (8.3%) were called active. Cut-off read from the data, not from the text of the source: active = survival mostly below about 52% (no sharp cut-off); inactive = mostly above about 56%. Some of the results follow.
system: DeltatarO mutant; assay: growth inhibition of S. aureus wild type versus tarO mutant, primary screen, teichoic acid synthesis inhibitors, RN4220, OD600 (AID 463173); conditions: OD600, 18 h, stronger effect = lower value, screened at 18.75 µg/mL (by protocol)

SMILES | survival
CCCN1CCN(c2ncnc3sc(C(=O)Nc4c(C)cc(C)cc4C)c(C)c23)CC1 | inactive: 72%
O=c1ccc(-c2ccccc2)nn1Cc1ccc(F)cc1Cl | inactive: 49%
Cc1ccc(Cn2ccnc2SCC(=O)Nc2nc3ccccc3s2)cc1 | inactive: 99%
Cc1cc(NC(=O)C2CCN(S(=O)(=O)c3cccc4nsnc34)CC2)ccc1Br | inactive: 80%
NS(=O)(=O)c1ccc(NC(=O)C(=O)Nc2ccc3nc4n(c(=O)c3c2)CCCCC4)cc1 | inactive: 89%
Cc1cccc(C(=O)N2c3nc(-c4ccco4)nn3C3(CCCCC3)[C@@H]3CCCC[C@@H]32)c1 | inactive: 55%
CCN=c1sc(C(=O)NCCc2ccccc2)cc(=O)n1CC | inactive: 71%
C#CCOc1ccc(C2CC(=O)Nc3c2c(C)nn3-c2nc(C)cc(C)n2)cc1 (centres undefined) | inactive: 83%
Cc1cccc(-n2ncc3c(N4CCCC(C)C4)ncnc32)c1 (centres undefined) | inactive: 84%
CSc1nn(Cc2cccc(C)c2)c(N)c1S(=O)(=O)c1ccccc1 | inactive: 124%
COc1ccc(CNC(=O)c2ccc(NC(=O)N3CCSc4ccccc43)cc2)cc1 | inactive: 56%
CC(C)CNC(=O)c1ccc(CN2CCOCC2)cc1 | inactive: 74%
CCOc1ccc2nc(N3CCCC(C(=O)Nc4cc(Cl)c(OC)cc4OC)C3)sc2c1 (centres undefined) | inactive: 90%
Cc1c(C(=O)Nc2cccc(-c3nc4ccccc4s3)c2)oc2ccccc12 | inactive: 80%
COc1ccccc1NC(=O)N1CCN2C(=O)c3ccccc3C12c1ccccc1 (centres undefined) | inactive: 84%
COc1cc2c(=O)n(CCC(=O)NCC3CCCO3)c(=O)n(CC(=O)Nc3ccc(C)cc3C)c2cc1OC (centres undefined) | inactive: 65%
Cc1ccccc1Cn1c2ccccc2c2cnn(CC(=O)NC3CCC(C)CC3)c(=O)c21 (centres undefined) | inactive: 64%
CCc1ccc(CNCc2c(C(=O)O)n(Cc3ccc(C)cc3)c3cc(C)ccc23)cc1 | active: 14%
COc1cc(NC(=O)C(CC(C)C)NS(=O)(=O)c2ccc3c(c2)CCN3C(C)=O)cc(OC)c1 (centres undefined) | inactive: 89%
CC(C)c1ccc2oc(-c3ccc(NC(=O)c4cccc(Br)c4)cc3)nc2c1 | active: 44%
Cc1ccc(NC(=O)CC(C)S(=O)(=O)c2ccc3c(c2)NC(=O)CO3)c(Cl)c1 (centres undefined) | inactive: 85%
Cc1ccc2nc(-c3ccc(NC(=O)c4ccc(S(C)(=O)=O)cc4)cc3)sc2c1 | inactive: 88%
COCCn1cc(C(=O)NCCCOC(C)C)c2c3ccccc3n(C)c2c1=O | inactive: 131%

SMILES | survival
Cc1ccc(Cc2nc3ccccc3nc2SCC(=O)N2CCN(c3ccc(F)cc3)CC2)cc1 | inactive: 112%
CCOC(=O)c1noc2nc(C)n(Cc3cccc([N+](=O)[O-])c3)c(=O)c12 | inactive: 134%
CCc1nn(CC(=O)NC(C)CCc2ccccc2)c(=O)c2cc3c(OC)cccc3n12 (centres undefined) | inactive: 75%
Cc1nnc(SCC(=O)NCc2ccccc2Cl)c2nn(-c3ccccc3)c(C)c12 | inactive: 122%
CCc1ccc(-n2nc(C)c3c(C)cc(=O)n(CC(=O)Nc4ccc(F)cc4C)c32)cc1 | inactive: 77%
Cc1ccc(CNC(=O)CCNS(=O)(=O)c2cccc3nsnc23)cc1 | inactive: 49%
CCCN(CCC)CC(O)Cn1cc(/C=C/C(=O)c2ccc(Br)cc2)c2ccccc21 (centres undefined) | inactive: 66%
CCn1cc(C(=O)N(C)c2ccc(C(C)C)cc2)c2cc(OC)c(OC)cc2c1=O | inactive: 117%
Cc1ccc2nc(NC(=O)CSc3ncc(C(=O)Nc4ccc(F)cc4)c(=O)n3C)sc2c1 | inactive: 112%
Cc1c(CCC(=O)N2CCCCC2)c(=O)oc2cc3occ(C(C)(C)C)c3cc12 | inactive: 59%
CCc1ccc(NC(=O)Cn2c(=O)n(-c3ccc(OC)cc3)c(=O)c3ccc(C(=O)NCc4ccc(C)cc4)cc32)cc1 | inactive: 103%
CC(=N/O)/C(=N\O)c1ccc(C)o1 | inactive: 93%
Cc1ccc(CN2CCN(C3CCNCC3)C(=O)C2=O)cc1 | inactive: 82%
COc1ccc(NC(=O)C2CCN(c3ccc(Sc4ccc(C)cc4)nn3)CC2)c(OC)c1 | inactive: 87%
CCC(C(=O)N1CCN(c2cc(C)ccc2C)CC1)n1nc(C)n2c(cc3occc32)c1=O (centres undefined) | active: 43%
Cc1ccc(S(=O)(=O)N2CCc3cc(C(=O)Nc4c(F)cccc4F)ccc32)cc1 | inactive: 64%
Cc1ccc2c(CN3CCN(C(=O)c4ccc(Br)cc4)CC3)cc(=O)oc2c1 | inactive: 51%
CCOc1ccc(NC(=O)C2CCCN(c3nnc(C)c4c(C)n(-c5ccccc5)nc34)C2)cc1 (centres undefined) | inactive: 115%
Cn1c(=O)c2c(nc(N3CCOCC3)n2Cc2ccc(Br)cc2)n(C)c1=O | active: 43%
Cc1nc(NCC2CCCO2)c2c3c(sc2n1)CCC3 (centres undefined) | inactive: 93%
COc1ccccc1NC(=O)CSC1=Nc2ccccc2C2=NC(CC(=O)NCc3ccccc3)C(=O)N12 (centres undefined) | inactive: 71%
COc1ccc(CCNC(=O)C2CCN(S(=O)(=O)c3c(C)noc3/C=C/c3ccc(C)cc3)CC2)cc1OC | inactive: 95%
CCC(=O)N1CCN(c2ccc(N)cc2)CC1 | inactive: 93%

SMILES | survival
Cc1ccc(S(=O)(=O)C(CNC(=O)C(=O)NCc2ccccc2C)c2cccs2)cc1 (centres undefined) | inactive: 85%
CNS(=O)(=O)c1cn(CC(=O)Nc2ccc(C(C)=O)cc2)cc1S(=O)(=O)NC | inactive: 69%
CCCCNS(=O)(=O)c1ccc(C)c(-c2nnc3c4ccccc4c(C)nn23)c1 | inactive: 94%
Cc1ccc(CN2CCN(C3CCN(C(=O)Nc4ccc(C)cc4Cl)CC3)C(=O)C2=O)cc1 | inactive: 99%
CC(=O)N1CCc2cc(CNC(=O)c3ccccc3Br)ccc21 | inactive: 79%
O=C(NCc1cccs1)C1CCN(C(=O)N2CCOc3ccc(Cl)cc32)CC1 | inactive: 51%
O=C(Nc1ccc(Br)cc1)c1ccc(F)c(S(=O)(=O)N2CCc3ccccc32)c1 | inactive: 70%
CC(=O)N1CCc2cc(S(=O)(=O)NC(Cc3ccccc3)C(=O)NCc3ccc(C)cc3)ccc21 (centres undefined) | inactive: 65%
C=CC#CC(C)(C)c1ccc(O)c(C)c1 | inactive: 97%
COc1cccc(NC(=O)CSc2nc(=O)n(Cc3ccncc3)c3c2CCC3)c1 | inactive: 98%
CCNc1nc2c(c(=O)n(Cc3ccccc3)c(=O)n2C)n1Cc1ccccc1 | inactive: 103%
CC1=C(C(=O)OC2C3CC4CC(C3)CC2C4)C(CC(=O)O)C(=O)N1 (centres undefined) | inactive: 64%
O=C(OC(C(=O)NCc1ccc2c(c1)OCO2)c1ccncc1)c1ccc(Cl)nc1 (centres undefined) | inactive: 84%
CN1CCN(CC(=O)Nc2ccc(C(=O)NCC3CCCO3)cc2)CC1 (centres undefined) | inactive: 100%
CC(C)C(=O)NS(=O)(=O)c1ccc(NC(=O)c2ccco2)cc1 | inactive: 90%
CC(C)OC(=O)c1c(-c2ccccc2)c(-c2ccccc2)nn(C)c1=O | inactive: 110%
CCOC(=O)c1ccc(NC(=O)CCn2ccc(C)n2)cc1 | inactive: 94%
CCOC(=O)c1c(C)[nH]c(CCC(=O)NCc2ccccc2Cl)c1C | inactive: 98%
CCOC(=O)c1cccc(Nc2cc(-c3ccccc3)ncn2)c1 | active: 15%
CCOc1ccc(OCC)c(NC(=O)C2CCN(c3nnc(-n4cccc4)s3)CC2)c1 | inactive: 75%
COc1ccccc1NC(=O)CCN1CCCCC1 | inactive: 55%
Cc1nc(-c2ccccc2)sc1CCNC(=O)C(=O)Nc1ccc2c(c1)OCO2 | inactive: 76%
Cc1c(Cl)cccc1NC(=O)c1ncoc1-c1ccco1 | inactive: 77%

SMILES | survival
Cc1ccc(NC(=O)C(C)n2nnc3sc4c(c3c2=O)CCCC4)cc1Cl (centres undefined) | inactive: 82%
CN1CC2(C)CN(C(=O)c3ccccc3Cl)CC(C)(C1)C2 | inactive: 88%
Oc1ccc(NCc2ccccc2OCc2ccccc2F)cc1 | inactive: 60%
CC(=O)c1ccc(NC(=O)CCCSc2nc(-c3ccco3)cc(C(F)(F)F)n2)cc1 | inactive: 98%
COc1cccc(NC(=O)C2=C(C)C(=O)OC23CCN(C(C)=O)CC3)c1 | inactive: 87%
c1ccc(-c2nnc(SCc3cccnc3)o2)cc1 | active: 54%
COC(=O)CN1C(=O)CSc2ccc(S(=O)(=O)Nc3cccc(C)c3C)cc21 | inactive: 63%
Cc1ccc(CN2CCSc3ccc(C(=O)NCC(C)c4ccccc4)cc32)cc1 (centres undefined) | inactive: 85%
CCC(=O)N1c2ccc(S(=O)(=O)NCc3ccc(F)cc3)cc2CC1C (centres undefined) | inactive: 74%
COc1cc2c(cc1OC)C(COc1ccc3c(C)cc(=O)oc3c1)N(C(=O)c1cc(Cl)ccc1OC)CC2 (centres undefined) | inactive: 61%
Cc1ccc(N(C)C(=O)C2CCN(S(=O)(=O)c3c(C)noc3/C=C/c3c(C)cc(C)cc3C)CC2)cc1 | inactive: 83%
COc1cccc(OCCSc2nc(C)c(Cc3ccccc3)c(=O)[nH]2)c1 | inactive: 76%
COc1ccc(NC(=O)CCCN2C(=O)CCn3nc(-c4cn(C)c5ccccc45)cc32)cc1OC | inactive: 82%
CCOC(=O)c1cccc(NC(=O)CC2C(=O)N(c3ccc(OC)cc3)C(=O)N2C2CCCC2)c1 (centres undefined) | inactive: 109%
Cc1cccc(N2CCN(S(=O)(=O)c3ccc4[nH]c5c(c4c3)CCCCC5)CC2)c1C | inactive: 86%
Cc1cccc(C(=O)NCC(=O)OCc2cc(=O)n3nc(C4CCCCC4)sc3n2)c1 | inactive: 91%
COc1cc(OC)c(NC(=O)CCc2c(C)nc3cc(-c4ccccc4OC)nn3c2C)cc1Cl | inactive: 80%
CCN(CC)C(C)C#Cc1ccccc1 (centres undefined) | inactive: 95%
CC(C)OC(=O)c1c(NC(=O)C2c3ccccc3Oc3ccccc32)sc2c1CCCC2 | inactive: 93%
Cc1ccc(C)c(N2CCN(C(=O)c3ccc4c(c3)N(Cc3ccc(F)cc3)C(=O)c3ccccc3S4=O)CC2)c1 (centres undefined) | inactive: 101%
